# In the supplement of paper PMC12217912:
# The list shows a part of the results. The full chains were built here from the parent and the listed change. Values near 0.05 are background.
# B1: TEV protease; numbered along this chain (parent)
# chain: MGESLFKGPRDYNPISSSICHLTNESDGHTTSLYGIGFGPFIITNKHLFRRNNGTLVVQSLHGVFKVKDTTTLQQHLVDGRDMIIIRMPKDFPPFPQKLKFREPQREERICLVTTNFQTKSMSSMVSDTSCTFPSGDGIFWKHWIQTKDGQCGSPLVSTRDGFIVGIHSASNFTNTNNYFTSVPKNFMELLTNQEAQQWVSGWRLNADSVLWGGHKVFMVKPEEPFQPVKEATQL
# Variants of: B1
# Assay: raw area under fraction-flipped curve 0-4 h after induction (AUC4h, not background-subtracted), DNA-recorder readout of cleavage of the substrate (dimensionless); higher = more cleavage of the substrate by the protease variant
# Conditions: temperature: 34 °C; time window: 0-4 h after rhamnose induction
# Description: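 In vivo DNA recorder in E. coli TOP10(DE3) ΔrhaA at 34 °C. Each TEVp single-site mutant (parent TEVp 0) is paired with a single-site variant of the 7-mer TEVs (canonical ENLYFQ|S). The substrate sits between flexible linkers in a Bxb1-sfGFP-TEVs-SsrA fusion, so cleavage stabilises Bxb1 and speeds flipping of a recombination array, read by NGS. The value is the raw area under the fraction-flipped curve over 0-4 h after rhamnose induction (AUC4h), with ≥20 reads per time point. It is not background-subtracted; inactive controls average about 0.047.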
# 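Also: Bxb1 expression induced with 0.2% (w/v) L-rhamnose at OD600 near 0.5, cultures sampled hourly, flipped fraction per protease–substrate barcode pair counted by paired-end Illumina sequencing.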
Variant,area with substrate ENLYFQA,area with substrate ENLYFQC,area with substrate ENLYFQE,area with substrate ENLYFQF,area with substrate ENLYFQG,area with substrate ENLYFQH,area with substrate ENLYFQI,area with substrate ENLYFQK,area with substrate ENLYFQL,area with substrate ENLYFQM,area with substrate ENLYFQN,area with substrate ENLYFQP,area with substrate ENLYFQQ,area with substrate ENLYFQR,area with substrate ENLYFQS,area with substrate ENLYFQT,area with substrate ENLYFQV,area with substrate ENLYFQW,area with substrate ENLYFQY,area with substrate ENLYFQD
G150C,0.0688,0.0642,0.0573,0.0653,0.057,0.0783,0.0569,0.0586,0.0597,0.0422,0.0581,0.0661,0.0516,0.0584,0.0611,0.0627,0.0736,0.0591,0.0676,–
G150T,0.0628,0.0575,–,0.0576,0.0598,0.0599,0.0602,0.0524,0.061,0.0686,0.0582,0.0548,0.0694,0.0583,0.0605,0.0587,–,0.0486,0.0579,0.0554
V64I,0.0967,0.127,–,0.0739,0.0715,–,–,–,0.0596,–,0.0809,–,–,0.0412,0.1,–,–,0.0672,–,0.0869
P96W,0.0966,–,–,–,0.0781,–,0.0578,–,0.0709,0.0771,–,–,–,0.0555,0.0893,–,–,–,–,0.0658
P96H,0.105,0.111,–,0.0478,0.123,0.0773,–,0.0541,0.0502,0.0812,0.0676,–,0.0749,0.0712,0.0982,0.0824,–,0.0737,0.0831,0.0754
H215Q,0.0702,0.0831,–,0.0497,–,0.0542,0.0577,0.0352,0.0618,0.0539,0.0529,–,0.0567,–,0.0694,0.0666,0.0581,0.0622,0.0541,–
D69G,0.0635,–,–,–,0.0806,–,0.0534,0.0665,0.0621,–,–,–,–,0.0513,0.0829,0.0551,0.0438,–,0.0389,0.0653
D69P,0.0918,0.114,–,0.0453,0.0766,0.0607,–,–,0.0582,0.0615,0.0739,0.0523,0.044,0.0667,0.086,0.0617,0.0543,0.0529,0.0625,0.0636
K66S,0.0909,0.112,–,0.0608,0.087,0.0838,0.0472,–,0.0211,0.0903,–,0.0417,–,0.0665,0.103,0.0775,–,0.055,–,0.0815
G80M,0.132,0.127,–,–,–,0.0655,–,0.0675,0.0635,–,0.0925,0.0733,–,0.0629,0.103,0.0505,0.028,–,0.0911,–
G80W,0.0916,0.109,–,0.0763,0.118,–,0.0525,0.0444,0.0591,0.0854,0.104,0.0596,0.0631,0.0578,0.11,0.0639,–,–,0.0777,–
T132D,0.0592,0.0688,0.0617,0.0853,0.0555,0.0727,0.0428,0.0483,0.0535,0.056,0.0544,0.0281,0.0473,0.052,0.0582,0.054,0.0449,0.0495,0.0615,0.037
T72K,0.126,0.0254,–,0.0693,–,–,0.0627,0.0736,0.0626,0.0897,0.0813,–,0.065,0.0526,0.106,0.0706,0.0777,0.0715,0.0791,0.075
I15L,0.105,0.128,0.0468,–,0.109,0.0717,0.0491,0.0645,0.0534,0.0785,0.0733,0.0643,0.0633,0.0586,0.0997,0.0643,–,0.0597,0.0776,0.0588
I15N,0.0696,0.0857,–,–,–,0.0568,0.0608,0.0622,0.0582,–,0.0624,0.0443,0.0515,0.0428,0.0749,0.0553,0.0535,0.0518,0.0604,–
I15F,0.101,0.099,–,–,0.0958,0.0679,0.0644,0.0648,0.0552,0.0821,–,0.0733,0.0744,0.0518,0.0908,0.0606,0.0456,0.069,–,0.0748
M125D,0.0826,0.0826,0.07,0.0704,0.103,0.0777,0.0616,0.0651,0.056,0.0835,0.0672,0.0599,–,0.0642,0.102,0.0701,0.101,0.063,0.0661,–
F101N,0.0391,0.042,–,–,0.0653,–,0.043,–,0.035,–,0.0558,–,0.0498,0.0502,0.0481,0.0548,–,0.0508,0.0315,0.0581
P184K,0.0839,–,–,–,0.0859,0.0766,0.0438,–,0.0755,0.0678,–,–,–,0.0603,0.073,0.0612,–,0.0645,–,–
P184A,0.0754,0.0824,0.0436,0.0697,0.103,0.0537,0.0592,0.0652,–,0.0736,0.0661,–,–,0.0789,0.0857,0.0573,0.0365,0.0559,0.0809,0.0578
T192S,0.089,0.103,–,–,–,–,0.0581,0.0613,0.0589,0.0754,0.0723,0.0629,0.0679,0.0637,0.0944,0.0683,–,0.0596,0.0837,–
S60T,0.106,0.0877,0.0691,0.101,0.0928,0.0889,0.0527,0.0597,0.0405,0.0977,0.0897,–,–,0.0697,0.101,0.0658,–,0.0683,0.0679,0.0724
P134T,0.0489,–,–,0.0763,–,0.0653,0.0601,0.0558,0.0636,–,0.052,0.0615,–,0.0701,0.0832,0.0591,0.0683,–,–,0.0783
